Counter-ions that a name gives are not always drawn.
Each molecule was assayed on cardiac arrhythmias in anesthetized rats subjected to coronary artery occlusion (assay: Antiarrhythmic efficacy: arrhythmias after coronary artery occlusion in anesthetized rats). Details: infusion rate reducing arrhythmia score to 50% of vehicle.
Type: in vivo, rat
`COc1ccc(CCO[C@H]2CCCC[C@@H]2N2CC[C@@H](O)C2)cc1OC.Cl` [Compound 2, (1S,2S)-2-[(3R)-Hydroxypyrrolidinyl]-1-(3,4-dimethoxyphenethoxy)cyclohexane monohydrochloride] was tested, and the ED50AA was 1.2 µmol/kg/min. Work on `COc1ccc(CCO[C@H]2CCCCC2N2CCC(O)C2)cc1OC` (stereo partly drawn) [Compound 3, (1R,2R)/(1S,2S)-2-[(3R)/(3S)-Hydroxypyrrolidinyl]-1-(3,4-dimethoxyphenethoxy)-cyclohexane monohydrochloride] yielded an ED50AA of 1.3 µmol/kg/min. With `COc1ccc(CCO[C@H]2CCCCC2N2CC[C@@H](O)C2)cc1OC.Cl` (stereo partly drawn) [Compound 4, (1R,2R)/(1S,2S)-2-[(3R)-Hydroxypyrrolidinyl]-1-(3,4-dimethoxyphenethoxy)-cyclohexane monohydrochloride] the ED50AA was 0.8 µmol/kg/min. Work on `COc1ccc(CCO[C@H]2CCCCC2N2CC[C@H](O)C2)cc1OC.Cl` (stereo partly drawn) [Compound 5, (1R,2R)/(1S,2S)-2-[(3S)-Hydroxypyrrolidinyl]-1-(3,4-dimethoxyphenethoxy)-cyclohexane monohydrochloride] yielded an ED50AA of 0.7 µmol/kg/min. In the case of `COc1ccc(CCO[C@@H]2CCCC[C@H]2N2CC[C@H](O)C2)cc1OC.Cl` [Compound 6, (1R,2R)-2-[(3S)-Hydroxypyrrolidinyl]-1-(3,4-dimethoxyphenethoxy) cyclohexane monohydrochloride], the ED50AA is reported as 1.6 µmol/kg/min. Work on `COc1ccc(CCO[C@H]2CCCC[C@@H]2N2CC[C@H](O)C2)cc1OC.Cl` [Compound 7, (1S,2S)-2-[(3S)-Hydroxypyrrolidinyl]-1-(3,4-dimethoxyphenethoxy)cyclohexane monohydrochloride] yielded an ED50AA of 0.9 µmol/kg/min. For `COc1ccc(CCO[C@H]2CCCCC2N2CC[C@H](OCc3ccccc3)C2)cc1OC.Cl` (stereo partly drawn) [Compound 11, (3S)-3-benzyloxy-1-{(1R,2R)/(1S,2S)-2-[2-(3,4-dimethoxyphenyl)-ethoxy]cyclohexyl}-pyrrolidine hydrochloride], the ED50AA was 0.5 µmol/kg/min. In the case of `COc1ccc(CCO[C@H]2CCCCC2N2CC[C@@H](OCc3ccccc3)C2)cc1OC.Cl` (stereo partly drawn) [Compound 12, (3R)-3-benzyloxy-1-{(1R,2R)/(1S,2S)-2-[2-(3,4-dimethoxyphenyl)-ethoxy]cyclohexyl}-pyrrolidine hydrochloride], the ED50AA is reported as 1 µmol/kg/min. In the case of `COc1ccc(CCO[C@H]2CCCCC2N2CC[C@H](OC(C)=O)C2)cc1OC.Cl` (stereo partly drawn) [Compound 13, (3S)-1-{(1R,2R)/(1S,2S)-2-[2-(3,4-dimethoxyphenyl)-ethoxy]cyclohexyl}-pyrrolidin-3-yl acetate hydrochloride], the ED50AA is reported as 1.3 µmol/kg/min. `COc1ccc(CCOC2CCCC[C@H]2N2CCC(F)C2)cc1OC.Cl` (stereo partly drawn) [Compound 14, (3R)/(3S)-1-{(1R,2R)/(1S,2S)-2-[2-(3,4-dimethoxyphenyl)-ethoxy]cyclohexyl}-3-fluoropyrrolidine hydrochloride] showed an ED50AA of 1.4 µmol/kg/min. For `COc1ccc(CCO[C@H]2CCCCC2N2CCC[C@@H]2CO)cc1OC.Cl` (stereo partly drawn) [Compound 15, {(2R)-1-{(1R,2R)/(1S,2S)-2-[2-(3,4-dimethoxyphenyl)-ethoxy]cyclohexyl}-pyrrolidin-2-yl}methanol hydrochloride], the ED50AA was 0.8 µmol/kg/min. With `COc1ccc(CCOC2CCCC[C@H]2N2CC=CC2)cc1OC.Cl` (stereo partly drawn) [Compound 16, 1-{(1R,2R)/(1S,2S)-2-[2-(3,4-dimethoxyphenyl)-ethoxy]cyclohexyl}-2,5-dihydro-1H-pyrrole hydrochloride] the ED50AA was 2.4 µmol/kg/min. `COc1ccc(CCO[C@@H]2CCCC[C@H]2N2CC[C@@H](OC(C)=O)C2)cc1OC.Cl` [Compound 17, (3R)-1-{(1R,2R)-2-[2-(3,4-dimethoxyphenyl)-ethoxy]cyclohexyl}-pyrrolidin-3-yl acetate hydrochloride] was tested, and the ED50AA was 2.1 µmol/kg/min. `COc1ccc(CCCO[C@H]2CCCCC2N2CCOCC2)cc1OC.Cl` (stereo partly drawn) [Compound 19, 4-{(1R,2R)/(1S,2S)-2-[3-(3,4-dimethoxyphenyl)-propoxy]cyclohexyl}morpholine hydrochloride] gave an ED50AA of 1.5 µmol/kg/min. With `COc1cc(CCCO[C@H]2CCCCC2N2CC[C@@H](O)C2)cc(Cl)c1OC.Cl` (stereo partly drawn) [Compound 21, (3R)-1-{(1R,2R)/(1S,2S)-2-[3-(3-chloro-4,5-dimethoxyphenyl)-propoxy]cyclohexyl}pyrrolidin-3-ol hydrochloride] the ED50AA was 0.6 µmol/kg/min. `COc1ccc(CCOC2CCCC[C@H]2N2CCN(C(=O)Cc3ccc(OC)c(OC)c3)CC2)cc1OC.Cl` (stereo partly drawn) [Compound 22, 1-[(3,4-dimethoxyphenyl)acetyl]-4-{(1R,2R)/(1S,2S)-2-[2-(3,4-dimethoxyphenyl)-ethoxy]cyclohexyl}-piperazine hydrochloride] gave an ED50AA of 0.6 µmol/kg/min. `Cl.OC1CCN(C2CCCC[C@@H]2OCCc2c(Cl)cccc2Cl)C1` (stereo partly drawn) [Compound 23, (3R)/(3S)-1-{(1R,2R)/(1S,2S)-2-[2-(2,6-dichlorophenyl)-ethoxy]cyclohexyl}-pyrrolidin-3-ol hydrochloride] gave an ED50AA of 0.6 µmol/kg/min. Work on `Cl.OC1CCN(C2CCCC[C@@H]2OCCc2ccccc2Br)C1` (stereo partly drawn) [Compound 24, (3R)/(3S)-1-{(1R,2R)/(1S,2S)-2-[2-(2-bromophenyl)-ethoxy]cyclohexyl}-pyrrolidin-3-ol hydrochloride] yielded an ED50AA of 0.4 µmol/kg/min. `Cl.OC1CCN([C@@H]2CCCC[C@@H]2OCCc2cccc3ccccc23)C1` (stereo partly drawn) [Compound 25, (3R)/(3S)-1-{(1R,2S)/(1S,2R)-2-[2-(1-naphthyl)ethoxy]-cyclohexyl}-pyrrolidin-3-ol hydrochloride] gave an ED50AA of 0.4 µmol/kg/min. For `Cl.O[C@@H]1CCN(C2CCCC[C@@H]2OCCc2ccccc2C(F)(F)F)C1` (stereo partly drawn) [Compound 27, (3R)-1-{(1R,2R)/(1S,2S)-2-[2-(2-Trifluoromethyl-phenyl)ethoxy]-cyclohexyl}-pyrrolidin-3-ol hydrochloride], the ED50AA was 0.7 µmol/kg/min. `Cl.OC1CCN(C2CCCC[C@@H]2OCCn2ccc3ccccc32)C1` (stereo partly drawn) [Compound 28, (3R)/(3S)-1-{(1R,2R)/(1S,2S)-2-[2-(1H-indol-1-yl)ethoxy]cyclohexyl}pyrrolidin-3-ol hydrochloride] showed an ED50AA of 0.6 µmol/kg/min. In the case of `Cl.O[C@@H]1CCN(C2CCCC[C@@H]2OCCc2cc3ccccc3o2)C1` (stereo partly drawn) [Compound 29, (3R)-1-{(1R,2R)/(1S,2S)-2-[2-(1-benzofuran-2-yl)ethoxy]-cyclohexyl}-pyrrolidin-3-ol hydrochloride], the ED50AA is reported as 1 µmol/kg/min. In the case of `c1ccc2cc(CCO[C@H]3CCCCC3N3CCOCC3)ccc2c1` (stereo partly drawn) [Compound 30, (1R,2R)/(1S,2S)-[2-(4-morpholinyl)-1-(2-naphthenethoxy)]-cyclohexane], the ED50AA is reported as 0.8 µmol/kg/min. Molecule `c1ccc2c(CCO[C@H]3CCCCC3N3CCOCC3)cccc2c1` (stereo partly drawn) [Compound 31, (1R,2R)/(1S,2S)-[2-(4-morpholinyl)-1-(1-naphthenethoxy)]-cyclohexane] has an ED50AA of 1 µmol/kg/min. `c1ccc2cc(OCCO[C@H]3CCCCC3N3CCOCC3)ccc2c1` (stereo partly drawn) [Compound 33, (1R,2R)/(1S,2S)-[2-(4-morpholinyl)-1-[2-(2-naphthoxy)ethoxy]]-cyclohexane] showed an ED50AA of 2 µmol/kg/min. `Brc1ccc(OCCO[C@H]2CCCCC2N2CCOCC2)cc1` (stereo partly drawn) [Compound 34, (1R,2R)/(1S,2S)-[2-(4-morpholinyl)-1-[2-(4-bromophenoxy)-ethoxy]]cyclohexane] gave an ED50AA of 3 µmol/kg/min. Molecule `COc1ccc(CCO[C@H]2CCCCC2N2CCOCC2)cc1OC` (stereo partly drawn) [Compound 35, (1R,2R)/(1S,2S)-[2-(4-morpholinyl)-1-(3,4-dimethoxy-phenethoxy)]-cyclohexane] has an ED50AA of 4 µmol/kg/min. `c1ccc2c(CCO[C@H]3CCCCC3N3CCOCC3)csc2c1` (stereo partly shown) [Compound 36] showed an ED50AA of 1 µmol/kg/min. Molecule `c1cc(CCO[C@H]2CCCCC2N2CCOCC2)c2ccsc2c1` (stereo partly shown) [Compound 37] has an ED50AA of 1 µmol/kg/min. In the case of `Brc1cccc(CCO[C@H]2CCCCC2N2CCOCC2)c1` (stereo partly drawn) [Compound 38, (1R,2R)/(1S,2S)-[2-(4-morpholinyl)-1-(3-bromophenethoxy)]-cyclohexane], the ED50AA is reported as 2 µmol/kg/min. For `Brc1ccccc1CCO[C@H]1CCCCC1N1CCOCC1` (stereo partly drawn) [Compound 39, (1R,2R)/(1S,2S)-[2-(4-morpholinyl)-1-(2-bromophenethoxy)]-cyclohexane], the ED50AA was 1 µmol/kg/min.
